# Residue numbers refer to the chain shown, from its start.
# B1: CT164: human monoclonal antibody effective against the influenza A viruses of group 2 (protein)
# light: EVVLTQSPGTLTLPPGDRATLSCRASHSVGSTYIAWFQQKSGQAPRRLIYGASNRATDIPDRFSGSGSGTDFTLTIRRLEPEDSAVYYCQQFSVSPWTFGQGTRVEIKRTVAAPSVFIFPPSDEQLKSGTASVVCLLNNFYPREAKVQWKVDNALQSGNSQESVTEQDSKDSTYSLSSTLTLSKADYEKHKVYACEVTHQGLSSPVTKSFNRGEC
# heavy: QVQLVQSGVEVKKPGASVKVSCKTSGYPFSTYGVSWVRQAPGQGLEWVGWISGYTGITDYAQKSQGRVTLTTDASTATAFLELRSLRPDDTATYFCARDKVQGRVEAGSGGRHDYWGQGTLVIVSS[human IgG1 constant region omitted here]
# B2: CT166: human monoclonal antibody effective against the influenza A viruses of group 2 (protein)
# light: B1 light with T12A, D17E, V29I, F37Y, T57S
# heavy: B1 heavy with V9A, P28S, S64F, S75T, A107V
# Legend:
# H3N2 A/Brisbane/10/07 = format: cell-based
# [1] = system: trimeric HA of A/Brisbane/10/07 (H3N2); format: binding
# A/Brisbane/10/07 = format: cell-based, influenza A virus
# H3N2 A/Wisconsin/67/05 = format: cell-based
# [2] = system: HA1 subunit of A/Brisbane/10/07(H3N2); format: binding
Molecule,lowest concentration of the antibody at which no virus antigen was detected (MN test) (H3N2 A/Brisbane/10/07) [µg/mL],binding to HA antigen (ELISA) [1],hemagglutination inhibition end point (lowest antibody concentration at which no hemagglutination reaction was observed) (A/Brisbane/10/07) [µg/mL],lowest concentration of the antibody at which no virus antigen was detected (MN test) (H3N2 A/Wisconsin/67/05) [µg/mL],binding to HA antigen (ELISA) [2]
B1,0.625,did easily bind,>20,2.5,did not bind
B2,1.25,did easily bind,>20,5,did not bind

# Reference: patent publication US10703802B2 (priority 2013, dated 2020)
